Assay results from PubChem BioAssay AID686979 (National Center for Advancing Translational Sciences (NCATS), 2013).
Hit rate of the full screen: of about 420,000 compounds, about 50,000 (12%) were called active. The shares of active, inactive and inconclusive entries below differ from those in the screen. The call rests on the fitted dose curve; in most records, active means well fitted inhibition curve with a large enough effect; inconclusive means small, poorly fitted or top-dose-only effect; inactive means flat fitted curve, though single readings scatter. No potency is given beside an inconclusive call; the fits are too rough.

Experiment: qHTS for Inhibitors of human tyrosyl-DNA phosphodiesterase 1 (TDP1): qHTS in cells in presence of CPT; further: nearly all actives have a fitted effect of over 55% in size
Details: chicken DT40 Tdp1-/-;hTDP1 cells + 20 nM CPT, ATP luminescence, 48 h; activity change, negative = growth inhibition: at 46.2 µM (top of the series) unless noted
Summary of the method: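 Chicken DT40 Tdp1-/- cells stably complemented with human TDP1 were seeded at 400 cells/well in medium containing 20 nM camptothecin, exposed to pin-transferred compounds, and grown at 37 °C for at least 48 hr. Viability was read as ATP luminescence.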
On the % scale 0 is the no-effect control and ±100 the full control effect; potency means the concentration at half of the fitted maximal effect; tags describe the fitted curve by direction and shape.

Structure (SMILES)	Potency	activity change, negative = growth inhibition
CC(C)(C)C(=O)NCCCc1nc2ccccc2n1CCCOc1ccc(Cl)cc1	active: 6.51 µM	–
COc1cccc(/C=N/NC(=O)CC2C(=O)NN=C2C)c1O (stereo not given)	inconclusive [inhibitor, single point]	–
Cc1ccc2nc(Nc3ccc4[nH]c(=O)[nH]c4c3)c(-n3nc(C)cc3C)nc2c1	inconclusive [inhibitor, single point]	–
CCN(CC)C(=O)[C@H]1CC(CC(=O)NCc2ccco2)C(=O)N2CCc3c([nH]c4ccccc34)[C@]12C (stereo not given in full)	–	inactive: -24.8%
Cc1cc(NC(=O)c2ccc(NC(=O)C(C)Oc3ccccc3)cc2)no1 (stereo not given)	–	inactive: -24.3%
O=C(COC(=O)C1c2ccccc2Oc2ccccc21)Nc1ccc2c(c1)OCO2	inconclusive [inhibitor, single point]	–
c1ccc(-c2nnc3ccc(N4CCC5(CC4)OCCO5)nn23)cc1	inconclusive [inhibitor, partial curve, poor fit]	–
Cc1ccc(C(=O)/C=C/c2ccc(-c3ccccc3[N+](=O)[O-])o2)cc1	inconclusive [inhibitor, single point]	–
Cc1cc(S(=O)(=O)N2CCC(NC(=O)C34CC5CC(CC(C5)C3)C4)CC2)ccc1-n1cnnn1	inconclusive [inhibitor, single point]	–
O=C1NC[C@@H](Cc2cccc3ccccc23)N(CCC23CC4CC(CC(C4)C2)C3)C1=O	inconclusive [inhibitor, partial curve]	–
COc1ccc(N2CCN(C(=O)CCCn3c(=O)[nH]c4ccsc4c3=O)CC2)cc1	–	inactive: -21.5%
COc1cccc(C(=O)Nc2cc(NC(=O)c3ccco3)ccc2OC)c1	active: 18.4 µM	–
O=C(NCC1CCCO1)NC1(C(F)(F)F)Oc2ccccc2O1 (stereo not given)	inconclusive [inhibitor, partial curve]	–
CC(=O)Nc1sc2c(c1CN1CCN(c3ccccn3)CC1)CCCC2	inconclusive [inhibitor, single point]	–
O=C1CCCN1CCCNc1ncnc2c1[nH]c1ccccc12	–	inconclusive: -38.5% [inhibitor]
CCCS(=O)(=O)N1CCC(C(=O)N2CCC(Cc3ccccc3)CC2)CC1	active: 18.4 µM	–
CC(C)C(NC(=O)COc1ccc2ccccc2c1)C(=O)N/N=C/C=C/c1ccccc1 (stereo not given)	active: 12.6 µM	–
CCc1ccc(C2=C(C)C(N3CCC(C(=O)NCCc4ccco4)CC3)=NS2(=O)=O)cc1	inconclusive [inhibitor, single point]	–
Cc1ccc(Cc2c(-c3ccc(C#N)cc3)nc3ccc(Br)cn23)cc1	active: 20.6 µM	–
COc1cccc(OCC(=O)Nc2nnc3n2CCS3)c1	–	inactive: -19.3%
CCCN1CNc2c(c(=O)[nH]c(=S)n2CCc2cccc(Cl)c2)C1	inconclusive [inhibitor, single point]	–
CCn1c(COc2cccc(C)c2C)nnc1SCC(=O)N1CCN(c2ccc(OC)cc2)CC1	active: 20.6 µM	–
C(=C\c1ccccc1)/CN1CCN(C(CCc2ccccc2)c2nnnn2-c2ccc3c(c2)OCCO3)CC1 (stereo not given)	active: 10.3 µM	–

Structure (SMILES)	Potency	activity change, negative = growth inhibition
O=C(O)/C=C/c1ccc2c(-c3ccccc3)onc2c1	inconclusive [inhibitor, single point]	–
O=C(NC1CCCCC1)N(Cc1cc2cc3c(cc2[nH]c1=O)OCCO3)C1CCCCC1	inconclusive [inhibitor, partial curve]	–
Cc1ccc(CN2CC(N3CC=CC3)CS2(=O)=O)cc1 (stereo not given)	inconclusive [inhibitor, single point]	–
CCC(=O)N1CCN(c2nnc(-c3ccccc3)c3ccccc23)CC1	–	inactive: -2.87%
Cc1cccc(NC(=O)CSc2nc(=O)n(Cc3cccnc3)c3c2CCC3)c1C	–	inactive: 8.84%
CC(C)(C(=O)N1CCC1(C)C(=O)NS(=O)(=O)c1ccc(Br)cc1)c1ccccc1 (stereo not given)	–	inactive: -32.2%
COc1cccc(C(c2nnnn2Cc2ccccc2)N2CCN(C3CCCC3)CC2)c1OC (stereo not given)	inconclusive [inhibitor, single point]	–
Cc1cccc(OC2CCN(Cc3nc(CC4CC4)no3)CC2)c1	inconclusive [inhibitor, single point]	–
Cc1cc(C)c2sc(N(CCN(C)C)C(=O)c3cc(Cl)sc3Cl)nc2c1	–	inconclusive: -31.9% [inhibitor]
c1ccc(C(=C2CCCO2)c2ccccc2)cc1	–	inactive: -6.91%
CC1=C(C(=O)N(C(C)C)C(C)C)CC(CC(=O)NC2CCCCC2)C(=O)N1Cc1ccc(F)cc1 (stereo not given)	inconclusive [inhibitor, single point]	–
COc1ccc(/C(C)=N/NC(=S)NCCc2ccccc2)cc1	inconclusive [inhibitor, single point]	–
Cc1ccc(-c2n[nH]c(=O)c3ccccc23)cc1S(=O)(=O)N(C)C	inconclusive [inhibitor, single point]	–
O=c1c2ccccc2ncn1-c1ccc(Br)cc1[N+](=O)[O-]	–	inactive: -28.9%
O=C(O)c1ccccc1C(=O)Nc1ccc(Nc2ccc([N+](=O)[O-])cc2[N+](=O)[O-])cc1	–	inactive: -2.97%
O=C(Nc1nc(-c2ccc(-c3ccccc3)cc2)cs1)c1cnccn1	–	inactive: -2.66%
N[C@@H](Cc1cc(CP(=O)(O)O)cc(-c2ccccc2Cl)c1)C(=O)O	–	inactive: -17.4%
CCOC(=O)NN=C1CN(S(=O)(=O)c2ccc(C)cc2)C1	–	inactive: -2.21%
CCOc1ccccc1CN1CCN(Cc2cc3ccccc3[nH]2)CC1CCO (stereo not given)	inconclusive [inhibitor, single point]	–
COc1cccc(C(=O)Nc2ccc3c(c2)OC[C@H](C)N(CCc2ccccc2)C[C@@H](C)[C@@H](OC)CN(C)C3=O)c1	inconclusive [inhibitor, single point]	–
COc1ccccc1C(=O)Nc1cccc2cccnc12	inconclusive [inhibitor, single point]	–
Cc1ccc(S(=O)(=O)Oc2ccc(N3C(=O)C4C5CCC(C5)C4C3=O)cc2)cc1 (stereo not given)	active: 4.11 µM	–
